# Data from the supplement of paper PMC8728848.
# The list shows a part of the results.
# How the values were obtained:
# Assay in all cases: glycan array binding signal (z-score within array); higher = stronger binding
# Settings in all cases: glycan notation: IUPAC condensed, linker removed; mutation: Y228W
# [1] = biological target: Man(a1-2)Man(a1-3)[Man(a1-2)Man(a1-6)]Man
# In short: (§1)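 From the Consortium for Functional Glycomics database, 3228 arrays were curated, keeping only those whose protein sequence was available. Binding is given as a within-array Z-score averaged across arrays sharing a protein sequence and across linkers. Negative Z-scores can be read as non-binding.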
# [2] = biological target: Man(a1-2)Man(a1-3)[Man(a1-2)Man(a1-6)]Man(a1-6)[Man(a1-2)Man(a1-2)Man(a1-3)]Man
# In short: as §1
# [3] = biological target: Man(a1-2)Man(a1-3)[Man(a1-2)Man(a1-6)]Man(a1-6)[Man(a1-2)Man(a1-2)Man(a1-3)]Man(b1-4)GlcNAc(b1-4)GlcNAc
# In short: as §1
# [4] = biological target: Man(a1-2)Man(a1-3)[Man(a1-6)]Man(a1-6)[Man(a1-2)Man(a1-3)]Man(b1-4)GlcNAc(b1-4)GlcNAc
# In short: as §1
# [5] = biological target: Man(a1-2)Man(a1-6)[Man(a1-3)]Man(a1-6)[Man(a1-2)Man(a1-2)Man(a1-3)]Man
# In short: as §1
# [6] = biological target: Man(a1-2)Man(a1-6)[Man(a1-3)]Man(a1-6)[Man(a1-2)Man(a1-2)Man(a1-3)]Man(b1-4)GlcNAc(b1-4)GlcNAc
# In short: as §1
# [7] = biological target: Man(a1-3)[Man(a1-6)]Man
# In short: as §1
# [8] = biological target: Man(a1-3)[Man(a1-6)]Man(a1-6)[Man(a1-2)Man(a1-3)]Man(b1-4)GlcNAc(b1-4)GlcNAc
# In short: as §1
# [9] = biological target: Man(a1-3)[Man(a1-6)]Man(a1-6)[Man(a1-3)]Man
# In short: as §1
# [10] = biological target: Man(a1-3)[Man(a1-6)]Man(a1-6)[Man(a1-3)]Man(b1-4)GlcNAc(b1-4)GlcNAc
# In short: as §1
# [11] = biological target: Man(a1-3)[Man(a1-6)]Man(b1-4)GlcNAc(b1-4)GlcNAc
# In short: as §1
# [12] = biological target: Man(a1-3)[Man(a1-6)]Man(b1-4)GlcNAc(b1-4)[Fuc(a1-6)]GlcNAc
# In short: as §1
# [13] = biological target: Man(a1-6)Man
# In short: as §1
# [14] = biological target: Man(b1-4)GlcNAc
# In short: as §1
# [15] = biological target: MurNAc(b1-4)GlcNAc
# In short: as §1
# [16] = biological target: Neu5Ac(a2-3)Gal
# In short: as §1
# [17] = biological target: Neu5Ac(a2-3)Gal(b1-3)GalNAc
# In short: as §1
# [18] = biological target: Neu5Ac(a2-3)Gal(b1-3)GalNAc(b1-3)Gal(a1-4)Gal(b1-4)Glc
# In short: as §1
# [19] = biological target: Neu5Ac(a2-3)Gal(b1-3)GalNAc(b1-4)Gal(b1-4)Glc
# In short: as §1
# [20] = biological target: Neu5Ac(a2-3)Gal(b1-3)GalNAc(b1-4)[Neu5Ac(a2-3)]Gal(b1-4)Glc
# In short: as §1
# [21] = biological target: Neu5Ac(a2-3)Gal(b1-3)GalNAc(b1-4)[Neu5Ac(a2-8)Neu5Ac(a2-3)]Gal(b1-4)Glc
# In short: as §1
# [22] = biological target: Neu5Ac(a2-3)Gal(b1-3)GalNAc6S
# In short: as §1
# [23] = biological target: Neu5Ac(a2-3)Gal(b1-3)GlcNAc
# In short: as §1
# [24] = biological target: Neu5Ac(a2-3)Gal(b1-3)GlcNAc(b1-2)Man
# In short: as §1
# [25] = biological target: Neu5Ac(a2-3)Gal(b1-3)GlcNAc(b1-2)Man(a1-3)[GlcNAc(b1-4)][Neu5Ac(a2-3)Gal(b1-3)GlcNAc(b1-2)Man(a1-6)]Man(b1-4)GlcNAc(b1-4)GlcNAc
# In short: as §1
# [26] = biological target: Neu5Ac(a2-3)Gal(b1-3)GlcNAc(b1-2)Man(a1-3)[Neu5Ac(a2-3)Gal(b1-3)GlcNAc(b1-2)Man(a1-6)]Man(b1-4)GlcNAc(b1-4)GlcNAc
# In short: as §1
# [27] = biological target: Neu5Ac(a2-3)Gal(b1-3)GlcNAc(b1-2)[Neu5Ac(a2-3)Gal(b1-3)GlcNAc(b1-4)]Man(a1-6)[Neu5Ac(a2-3)Gal(b1-3)GlcNAc(b1-2)Man(a1-3)]Man(b1-4)GlcNAc(b1-4)GlcNAc
# In short: as §1
# [28] = biological target: Neu5Ac(a2-3)Gal(b1-3)GlcNAc(b1-3)Gal(b1-3)GlcNAc
# In short: as §1
# [29] = biological target: Neu5Ac(a2-3)Gal(b1-3)GlcNAc(b1-3)Gal(b1-4)GlcNAc
# In short: as §1
# [30] = biological target: Neu5Ac(a2-3)Gal(b1-3)GlcNAc(b1-3)GalNAc
# In short: as §1
binder,measurement,setting,value
"Epa1-NP-mutant-Y228W (Candida glabrata), Q6VBJ0 (protein) MILNPALFLNKCVCIYTTLILLLLTNGGYATSSNDISLASKDPTTFPLGCSPDITTPKKGLSMELYSYDFRKKGSYPCWDAAYLDPNYPRTGYKSHRLLAKVDGVTGNINFYYHATKGCTPQLGHLPASYNYPKPLTMTNFTMLLYGYFRPKVTGFHTFTISADDLLFVNFGAGNAFDCCRRDSSADHFGNYQAYAIWGSKTAKDELTVHLDAGVYYPIRLFYNNREWDGALSFTFKTESNENTVSDFSEYFFSLDDTEEGCPGLISYDSSCASVKTSKIIGIDYHTETPNENLVPITKTIYHLGIPCTGTTTTPLCGSGFYDPLANKCVTINTSSTSSVTKTTSHTTSKEVSFHSSISSQKTLIPKSIPSPYGPIKSQSIPTEMETSSEISSSEYAFSDVISTPSHSPYTKKHSSLNSSSYTSTVIHSLTSYSISQGIFSTSLSEQNITSKSSTDKFSTATSMSNNITQSSIIISQFSTNNENYTTTSMHTSSDKISTETLNNSISTTTSILFSNSSTILKNNTTIISSDKDTHYHPVNPTIVCSTNKTEIICASITQPSISNSNNHWSSSVLKFNSTTVRSTLPSSAGSNETSINVPFSSSTESNTSTSSTSTSNSKMVRSTLPSSAGSNETSISVPFSSSTESNTSTSSTSTSNSKMVRSTLPSSAGSNETSINVPFSSSTESNTSTSSTSTSNSKTVRSTPFSSAGIIMTSLSQRNNKSASSYASSNSKCYNTADSCRKVHSTPSYLLTSSYTSEGVDYDCSLVSTKLKINDTNCVNNKHTTKSCLKTSVTTTIPTLEIKTARKSSSNTIGLHSYPTSSPNKSISSAPIIGYISSFKTIKTASPSYQTSDLTTITTITSLNNPGSTAVENTHESNDKSRKTSSNDISSKHSVIKETKDAVESSNKSHQTNTLKCSSIIIASSSHNSYESLGGTTLTLTLSKVYSPQNNDTLPFLEISEVNPSRTVLPESSKMMQYLTSTEERNKTARNTIATNIVSISTFHFEGEGNAIRMGYTQLLLMLIGIIVMNIGT",glycan array binding signal (z-score),[1],-0.495
same,glycan array binding signal (z-score),[2],-0.267
same,glycan array binding signal (z-score),[3],-0.382
same,glycan array binding signal (z-score),[4],-0.004
same,glycan array binding signal (z-score),[5],-0.337
same,glycan array binding signal (z-score),[6],-0.28
same,glycan array binding signal (z-score),[7],-0.183
same,glycan array binding signal (z-score),[8],-0.291
same,glycan array binding signal (z-score),[9],-0.095
same,glycan array binding signal (z-score),[10],-0.275
same,glycan array binding signal (z-score),[11],-0.221
same,glycan array binding signal (z-score),[12],-0.007
same,glycan array binding signal (z-score),[13],-0.361
same,glycan array binding signal (z-score),[14],0.004
same,glycan array binding signal (z-score),[15],0.201
same,glycan array binding signal (z-score),[16],0
same,glycan array binding signal (z-score),[17],-0.292
same,glycan array binding signal (z-score),[18],-0.219
same,glycan array binding signal (z-score),[19],-0.22
same,glycan array binding signal (z-score),[20],-0.165
same,glycan array binding signal (z-score),[21],-0.3
same,glycan array binding signal (z-score),[22],-0.312
same,glycan array binding signal (z-score),[23],0.052
same,glycan array binding signal (z-score),[24],-0.329
same,glycan array binding signal (z-score),[25],-0.322
same,glycan array binding signal (z-score),[26],-0.117
same,glycan array binding signal (z-score),[27],-0.103
same,glycan array binding signal (z-score),[28],-0.516
same,glycan array binding signal (z-score),[29],-0.166
same,glycan array binding signal (z-score),[30],-0.104
